Whole data set: some 81,000 sequences, median “one-hybrid fitness for binding parS DNA” near -0.17, cut for the highest 2% near 0.51. The list shows a part of the results.
B1: Caulobacter ParB omega fusion; a variant is named by its letters at X, in order, B8GW30 (parent)
chain: MESVVVGEPGMSEGRRGLGRGLSALLGEVDAAPAQAPGEQLGGSREAPIEILQRNPDQPRRTFREEDLEDLSNSIREKGVLQPILVRPSPDTAGEYQIVAGERAWRAAQRAGLKTVPIMVRELDDLAVLEIGIIENVQRADLNVLEEALSYKVLMEKFERTQENIAQTIGKSXSHVANXMRLLXLPDEVQSYLVSGELTAXHARAIAAAADPVALAKQIIEGGLSVRETEALARKAPNLSAGKSKGGRPPRVKDTDTQALESDLSSVLGLDVSIDHRGSTGTLTITYATLEQLDDLCNRLTRGI

Variants of: B1
Assay: one-hybrid fitness for binding parS DNA (scaled: cognate 1, non-cognate 0); higher = stronger binding
Settings: with parS DNA site
In short: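 Fitness is the rescaled log change in variant-to-wild-type read ratio, measured by Illumina sequencing of plasmids before and after bacterial one-hybrid selection. The scale puts cognate at 1 and non-cognate at 0. Selection of Caulobacter ParB libraries, four specificity codons randomised, took place in E. coli USO with a HIS3 reporter, site 19 bp from the promoter, over 48 hours at 37°C on M9-minus-histidine with 0.1 mM IPTG and 5 mM 3-AT.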
For KMAR, the “one-hybrid fitness for binding parS DNA” value was at most 0.2.
In the case of PYCH, the “one-hybrid fitness for binding parS DNA” value is reported as at most 0.2.
In the case of YYRT, the “one-hybrid fitness for binding parS DNA” value is reported as at most 0.2.
With MNLC the “one-hybrid fitness for binding parS DNA” value was at most 0.2.
In the case of PTHM, the “one-hybrid fitness for binding parS DNA” value is reported as at most 0.2.
With CRYC the “one-hybrid fitness for binding parS DNA” value was at most 0.2.
In the case of VMMS, the “one-hybrid fitness for binding parS DNA” value is reported as at most 0.2.
For GPAH, the “one-hybrid fitness for binding parS DNA” value was at most 0.2.
SPGS was tested, and the “one-hybrid fitness for binding parS DNA” value was at most 0.2.
For PHLH, the “one-hybrid fitness for binding parS DNA” value was at most 0.2.
In the case of ATRW, the “one-hybrid fitness for binding parS DNA” value is reported as at most 0.2.
TECT was tested, and the “one-hybrid fitness for binding parS DNA” value was at most 0.2.
In the case of PPYM, the “one-hybrid fitness for binding parS DNA” value is reported as at most 0.2.
With AIAR the “one-hybrid fitness for binding parS DNA” value was at most 0.2.
For QFYR, the “one-hybrid fitness for binding parS DNA” value was at most 0.2.
For TKDD, the “one-hybrid fitness for binding parS DNA” value was at most 0.2.
For GDMS, the “one-hybrid fitness for binding parS DNA” value was at most 0.2.
QRWN was tested, and the “one-hybrid fitness for binding parS DNA” value was at most 0.2.
In the case of GAFS, the “one-hybrid fitness for binding parS DNA” value is reported as at most 0.2.
With TIYS the “one-hybrid fitness for binding parS DNA” value was at most 0.2.
WNES was tested, and the “one-hybrid fitness for binding parS DNA” value was at most 0.2.
For EAMF, the “one-hybrid fitness for binding parS DNA” value was at most 0.2.
NIKS was tested, and the “one-hybrid fitness for binding parS DNA” value was at most 0.2.
With WQCW the “one-hybrid fitness for binding parS DNA” value was at most 0.2.
With KYTT the “one-hybrid fitness for binding parS DNA” value was at most 0.2.
DDET was tested, and the “one-hybrid fitness for binding parS DNA” value was at most 0.2.
For TCRT, the “one-hybrid fitness for binding parS DNA” value was at most 0.2.
TMLW was tested, and the “one-hybrid fitness for binding parS DNA” value was at most 0.2.
For ICDW, the “one-hybrid fitness for binding parS DNA” value was at most 0.2.
HQVE was tested, and the “one-hybrid fitness for binding parS DNA” value was at most 0.2.
With ISET the “one-hybrid fitness for binding parS DNA” value was at most 0.2.
In the case of TVSH, the “one-hybrid fitness for binding parS DNA” value is reported as at most 0.2.
With YVKS the “one-hybrid fitness for binding parS DNA” value was at most 0.2.
STKS was tested, and the “one-hybrid fitness for binding parS DNA” value was at most 0.2.
For TRTM, the “one-hybrid fitness for binding parS DNA” value was at most 0.2.
In the case of NWTE, the “one-hybrid fitness for binding parS DNA” value is reported as at most 0.2.
For PGVI, the “one-hybrid fitness for binding parS DNA” value was at most 0.2.
VARA was tested, and the “one-hybrid fitness for binding parS DNA” value was at most 0.2.
For PYRF, the “one-hybrid fitness for binding parS DNA” value was at most 0.2.
In the case of VWVG, the “one-hybrid fitness for binding parS DNA” value is reported as at most 0.2.
In the case of KAIG, the “one-hybrid fitness for binding parS DNA” value is reported as at most 0.2.
With VCNS the “one-hybrid fitness for binding parS DNA” value was at most 0.2.
In the case of NLGN, the “one-hybrid fitness for binding parS DNA” value is reported as at most 0.2.
In the case of REFM, the “one-hybrid fitness for binding parS DNA” value is reported as at most 0.2.
For FIST, the “one-hybrid fitness for binding parS DNA” value was at most 0.2.
ISID was tested, and the “one-hybrid fitness for binding parS DNA” value was at most 0.2.
In the case of VARG, the “one-hybrid fitness for binding parS DNA” value is reported as at most 0.2.
GLQL was tested, and the “one-hybrid fitness for binding parS DNA” value was at most 0.2.
For GPVV, the “one-hybrid fitness for binding parS DNA” value was at most 0.2.
NVQA was tested, and the “one-hybrid fitness for binding parS DNA” value was at most 0.2.
RQFR was tested, and the “one-hybrid fitness for binding parS DNA” value was at most 0.2.
YVVV was tested, and the “one-hybrid fitness for binding parS DNA” value was at most 0.2.
With HNQP the “one-hybrid fitness for binding parS DNA” value was at most 0.2.
In the case of AYHR, the “one-hybrid fitness for binding parS DNA” value is reported as at most 0.2.
With TGKS the “one-hybrid fitness for binding parS DNA” value was at most 0.2.
In the case of AQLL, the “one-hybrid fitness for binding parS DNA” value is reported as at most 0.2.
In the case of YLVS, the “one-hybrid fitness for binding parS DNA” value is reported as at most 0.2.
TKLS was tested, and the “one-hybrid fitness for binding parS DNA” value was at most 0.2.
In the case of NTIL, the “one-hybrid fitness for binding parS DNA” value is reported as at most 0.2.
In the case of FHNL, the “one-hybrid fitness for binding parS DNA” value is reported as at most 0.2.
With LKPT the “one-hybrid fitness for binding parS DNA” value was at most 0.2.
HYSA was tested, and the “one-hybrid fitness for binding parS DNA” value was at most 0.2.
For PRDW, the “one-hybrid fitness for binding parS DNA” value was at most 0.2.
RKYQ was tested, and the “one-hybrid fitness for binding parS DNA” value was 0.213.
For HIKS, the “one-hybrid fitness for binding parS DNA” value was at most 0.2.
With NHTT the “one-hybrid fitness for binding parS DNA” value was at most 0.2.
In the case of LIIY, the “one-hybrid fitness for binding parS DNA” value is reported as at most 0.2.
GFKR was tested, and the “one-hybrid fitness for binding parS DNA” value was at most 0.2.
With NILT the “one-hybrid fitness for binding parS DNA” value was at most 0.2.
With QIAT the “one-hybrid fitness for binding parS DNA” value was at most 0.2.
With TVPI the “one-hybrid fitness for binding parS DNA” value was at most 0.2.
In the case of GIPH, the “one-hybrid fitness for binding parS DNA” value is reported as at most 0.2.
In the case of WICS, the “one-hybrid fitness for binding parS DNA” value is reported as 0.216.
In the case of MKST, the “one-hybrid fitness for binding parS DNA” value is reported as at most 0.2.
In the case of RQSD, the “one-hybrid fitness for binding parS DNA” value is reported as at most 0.2.
MVRG was tested, and the “one-hybrid fitness for binding parS DNA” value was at most 0.2.
In the case of VANH, the “one-hybrid fitness for binding parS DNA” value is reported as at most 0.2.
With KSFA the “one-hybrid fitness for binding parS DNA” value was at most 0.2.
In the case of IPIK, the “one-hybrid fitness for binding parS DNA” value is reported as at most 0.2.
With HAKI the “one-hybrid fitness for binding parS DNA” value was at most 0.2.
For YGEL, the “one-hybrid fitness for binding parS DNA” value was at most 0.2.
With MSAM the “one-hybrid fitness for binding parS DNA” value was at most 0.2.
For RRWP, the “one-hybrid fitness for binding parS DNA” value was at most 0.2.
With HNFG the “one-hybrid fitness for binding parS DNA” value was at most 0.2.
In the case of LFHF, the “one-hybrid fitness for binding parS DNA” value is reported as at most 0.2.
With ATKL the “one-hybrid fitness for binding parS DNA” value was at most 0.2.
RFAT was tested, and the “one-hybrid fitness for binding parS DNA” value was 0.79.
FTIM was tested, and the “one-hybrid fitness for binding parS DNA” value was at most 0.2.
With TPAR the “one-hybrid fitness for binding parS DNA” value was at most 0.2.
With EHRG the “one-hybrid fitness for binding parS DNA” value was at most 0.2.
In the case of YIAC, the “one-hybrid fitness for binding parS DNA” value is reported as at most 0.2.
In the case of SMSV, the “one-hybrid fitness for binding parS DNA” value is reported as at most 0.2.
With CSFR the “one-hybrid fitness for binding parS DNA” value was at most 0.2.
For SEQI, the “one-hybrid fitness for binding parS DNA” value was at most 0.2.
In the case of FLKG, the “one-hybrid fitness for binding parS DNA” value is reported as at most 0.2.
For SDMC, the “one-hybrid fitness for binding parS DNA” value was at most 0.2.
VLLF was tested, and the “one-hybrid fitness for binding parS DNA” value was at most 0.2.
VVKR was tested, and the “one-hybrid fitness for binding parS DNA” value was at most 0.2.
In the case of DQMK, the “one-hybrid fitness for binding parS DNA” value is reported as at most 0.2.
With TGVV the “one-hybrid fitness for binding parS DNA” value was at most 0.2.
With CERL the “one-hybrid fitness for binding parS DNA” value was at most 0.2.
MRLV was tested, and the “one-hybrid fitness for binding parS DNA” value was at most 0.2.
LDYS was tested, and the “one-hybrid fitness for binding parS DNA” value was at most 0.2.
In the case of GRDL, the “one-hybrid fitness for binding parS DNA” value is reported as at most 0.2.
With PCPW the “one-hybrid fitness for binding parS DNA” value was at most 0.2.
In the case of SQKH, the “one-hybrid fitness for binding parS DNA” value is reported as at most 0.2.
VAFW was tested, and the “one-hybrid fitness for binding parS DNA” value was at most 0.2.
In the case of LQVM, the “one-hybrid fitness for binding parS DNA” value is reported as at most 0.2.
NSHL was tested, and the “one-hybrid fitness for binding parS DNA” value was at most 0.2.
RQMT was tested, and the “one-hybrid fitness for binding parS DNA” value was 0.881.
For RRIG, the “one-hybrid fitness for binding parS DNA” value was 0.908.
For RGGV, the “one-hybrid fitness for binding parS DNA” value was at most 0.2.
With QCKS the “one-hybrid fitness for binding parS DNA” value was at most 0.2.
With HHPQ the “one-hybrid fitness for binding parS DNA” value was at most 0.2.
In the case of HFIF, the “one-hybrid fitness for binding parS DNA” value is reported as at most 0.2.
LPAV was tested, and the “one-hybrid fitness for binding parS DNA” value was at most 0.2.
In the case of KSGV, the “one-hybrid fitness for binding parS DNA” value is reported as at most 0.2.
In the case of IQEG, the “one-hybrid fitness for binding parS DNA” value is reported as at most 0.2.
In the case of VWQV, the “one-hybrid fitness for binding parS DNA” value is reported as at most 0.2.
YRAL was tested, and the “one-hybrid fitness for binding parS DNA” value was at most 0.2.
With QFTM the “one-hybrid fitness for binding parS DNA” value was at most 0.2.
In the case of IYRR, the “one-hybrid fitness for binding parS DNA” value is reported as at most 0.2.
In the case of RAHA, the “one-hybrid fitness for binding parS DNA” value is reported as 0.613.
With DRLM the “one-hybrid fitness for binding parS DNA” value was at most 0.2.
With NSTF the “one-hybrid fitness for binding parS DNA” value was at most 0.2.
HLAT was tested, and the “one-hybrid fitness for binding parS DNA” value was at most 0.2.
In the case of FTRS, the “one-hybrid fitness for binding parS DNA” value is reported as at most 0.2.
With MHNC the “one-hybrid fitness for binding parS DNA” value was at most 0.2.
YISN was tested, and the “one-hybrid fitness for binding parS DNA” value was at most 0.2.
In the case of HVAL, the “one-hybrid fitness for binding parS DNA” value is reported as at most 0.2.
GFGM was tested, and the “one-hybrid fitness for binding parS DNA” value was at most 0.2.
GICF was tested, and the “one-hybrid fitness for binding parS DNA” value was at most 0.2.
RITV was tested, and the “one-hybrid fitness for binding parS DNA” value was at most 0.2.
In the case of HRNQ, the “one-hybrid fitness for binding parS DNA” value is reported as at most 0.2.
In the case of DPKR, the “one-hybrid fitness for binding parS DNA” value is reported as at most 0.2.
DPPL was tested, and the “one-hybrid fitness for binding parS DNA” value was at most 0.2.
In the case of TMNS, the “one-hybrid fitness for binding parS DNA” value is reported as at most 0.2.
With GLDE the “one-hybrid fitness for binding parS DNA” value was at most 0.2.
With RTCI the “one-hybrid fitness for binding parS DNA” value was at most 0.2.
With SQRK the “one-hybrid fitness for binding parS DNA” value was at most 0.2.
With GKAV the “one-hybrid fitness for binding parS DNA” value was at most 0.2.
With MDMP the “one-hybrid fitness for binding parS DNA” value was at most 0.2.
For GWDG, the “one-hybrid fitness for binding parS DNA” value was at most 0.2.
With RAMW the “one-hybrid fitness for binding parS DNA” value was at most 0.2.
With AYPS the “one-hybrid fitness for binding parS DNA” value was at most 0.2.
For DSAC, the “one-hybrid fitness for binding parS DNA” value was at most 0.2.
For PHCC, the “one-hybrid fitness for binding parS DNA” value was at most 0.2.
YRVL was tested, and the “one-hybrid fitness for binding parS DNA” value was at most 0.2.
In the case of RMCY, the “one-hybrid fitness for binding parS DNA” value is reported as 0.509.
VELN was tested, and the “one-hybrid fitness for binding parS DNA” value was at most 0.2.
For CPGV, the “one-hybrid fitness for binding parS DNA” value was at most 0.2.
For IMRG, the “one-hybrid fitness for binding parS DNA” value was at most 0.2.
With TENT the “one-hybrid fitness for binding parS DNA” value was at most 0.2.

— a collection of fitness landscapes (doi:10.1016/j.celrep.2020.107928)
